# Assay results from article PMC4336329 (PLoS ONE, 2015).
# Screen size: about 310,000 compounds; about 14,000 (4.5%) showed an effect of 50% or more. The effect is printed as a negative number. This is one part of the list.
# Molecular target: human ether-à-go-go-related gene (hERG) potassium channel (human, UniProt Q12809)
# Assay: primary screen, population patch clamp on CHO cells stably expressing hERG
# 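Note: peak tail current of the secondary pulse compared with the same well before compound.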
# Chain of human ether-à-go-go-related gene (hERG) potassium channel (Q12809 whole entry, looked up): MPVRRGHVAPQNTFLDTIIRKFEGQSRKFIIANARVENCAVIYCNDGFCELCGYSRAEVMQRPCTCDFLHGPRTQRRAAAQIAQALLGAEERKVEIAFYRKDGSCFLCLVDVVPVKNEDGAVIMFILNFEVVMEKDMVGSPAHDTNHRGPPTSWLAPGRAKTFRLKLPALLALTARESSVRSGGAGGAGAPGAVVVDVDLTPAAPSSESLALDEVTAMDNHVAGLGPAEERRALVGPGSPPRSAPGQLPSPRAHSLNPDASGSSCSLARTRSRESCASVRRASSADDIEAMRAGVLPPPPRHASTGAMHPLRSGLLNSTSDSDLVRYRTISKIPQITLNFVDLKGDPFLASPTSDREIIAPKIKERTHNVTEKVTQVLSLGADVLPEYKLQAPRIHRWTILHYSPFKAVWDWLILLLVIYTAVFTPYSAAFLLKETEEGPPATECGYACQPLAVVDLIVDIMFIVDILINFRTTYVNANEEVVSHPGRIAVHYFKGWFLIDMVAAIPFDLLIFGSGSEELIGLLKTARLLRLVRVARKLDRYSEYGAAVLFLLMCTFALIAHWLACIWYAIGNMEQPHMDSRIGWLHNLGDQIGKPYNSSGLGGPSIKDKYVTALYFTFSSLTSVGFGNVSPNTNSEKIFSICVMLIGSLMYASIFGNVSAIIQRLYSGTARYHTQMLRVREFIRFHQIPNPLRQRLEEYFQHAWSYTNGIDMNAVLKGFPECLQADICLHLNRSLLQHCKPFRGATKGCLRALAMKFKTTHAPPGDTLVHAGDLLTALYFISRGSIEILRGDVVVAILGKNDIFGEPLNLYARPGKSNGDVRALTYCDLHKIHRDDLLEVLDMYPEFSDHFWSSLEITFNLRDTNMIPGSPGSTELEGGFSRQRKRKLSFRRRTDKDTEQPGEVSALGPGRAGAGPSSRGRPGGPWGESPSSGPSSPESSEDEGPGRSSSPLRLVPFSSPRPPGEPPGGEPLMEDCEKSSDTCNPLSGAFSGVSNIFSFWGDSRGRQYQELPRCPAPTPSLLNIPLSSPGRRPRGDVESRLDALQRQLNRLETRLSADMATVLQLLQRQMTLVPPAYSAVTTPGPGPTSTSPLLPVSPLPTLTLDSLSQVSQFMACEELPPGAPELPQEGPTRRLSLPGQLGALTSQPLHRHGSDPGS
row,SMILES,"hERG current change (%, negative = inhibition) at 10uM"
1,COc1cccc(CC2(CO)CCN(Cc3cn(C)nc3C)CC2)c1,18.3%
2,COc1ccc(-c2cc3ccccc3s2)cc1[C@H]1[C@H]2C=CC[C@@H](C)[C@@H]2C(=O)N1Cc1ccccc1,5.07%
3,COc1ccc(-n2nnnc2S(=O)(=O)Cc2ccc(C(=O)O)cc2)cc1,4.17%
4,Cc1ccc(/C=N\NC(=O)Cc2noc3ccccc23)cc1,15.6%
5,O=C1c2ccc(Oc3cccc([N+](=O)[O-])c3)cc2C(=O)N1c1ccccn1,4.5%
6,Cc1ccc(NC(=O)c2cc([N+](=O)[O-])ccc2N2CCOCC2)cc1S(=O)(=O)N(C)C,-52.8%
7,Cc1ccc(-c2nnc(-c3ccccc3S(=O)(=O)Cc3ccc(Cl)cc3)o2)cc1,10.5%
8,COc1ccc(N(CC(=O)NCCc2ccccc2)C(=O)CCC(=O)Nc2nccs2)cc1,14.9%
9,CC(Oc1ccccc1F)C(=O)NNC(=O)CCNC(=O)c1ccccc1Cl (stereo not drawn),21.6%
10,O=C(c1ccc(Br)c(S(=O)(=O)N2CCCCC2)c1)N1CCCCC1,-16.2%
11,O=C(CN1C(=O)c2ccccc2S1(=O)=O)N1CCOCC1,-1.82%
12,Cc1ccc(NC(=O)CN(C)C(=O)c2sc3cc(Cl)ccc3c2Cl)cc1,9.95%
13,COc1ccccc1-c1c(C)[nH]n2c(=O)c(Cc3ccccc3)c(C)nc12,-2.24%
14,CCCCN1C(=O)C(=O)N(CC(=O)Nc2cc(S(=O)(=O)N(C)C)ccc2C)C1=O,6.6%
15,C(=N\Nc1ccc2ccccc2n1)/c1ccc2c(c1)OCCO2,0.268%
16,C/C(=N/NC(=O)c1ccc2nc[nH]c2c1)c1cccs1,-2.29%
17,Cc1nc2nc(SCC(=O)O)nn2c(C)c1Cc1ccccc1Cl,30.8%
18,CCCc1nn2c(=O)cc(CSCC(=O)Nc3ccccc3OC)nc2s1,14.8%
19,CCC1=NN(C(=O)Cc2ccc([N+](=O)[O-])cc2)C(O)(c2ccc(Br)cc2)C1 (stereo not drawn),-26%
20,Cc1cc(C)c(C)c(C(=O)c2ccccc2C(=O)O)c1C,10.1%
21,COc1ccc2sc(-c3ccccc3OC)c(C#CC(C)(C)O)c2c1,14.6%
22,COc1cc(C(=O)c2c(C)c(CCC#N)n3ccccc23)cc(OC)c1OC,-15%
23,CCC(=O)N(CCC(Cc1ccccc1)c1ccc2c(c1)OCO2)Cc1ccccc1F (stereo not drawn),-5.97%
24,O=C(Nc1ccccc1F)C1CCN(C(=O)Cc2ccccc2)CC1,-2.34%
25,CCC(=O)c1cc2c(cc1NC(=O)c1ccc(C)cc1)OCCO2,2.46%
26,Cc1ccsc1/C=C/c1ccc2ccccc2n1,7.43%
27,CCc1ccc(N2C(=O)CC(Cn3nc(C)cc3C)C2=O)cc1 (stereo not drawn),8.91%

row,SMILES,"hERG current change (%, negative = inhibition) at 10uM"
1,COC(=O)c1cn(NC(=O)Cc2ccc(Cl)cc2)c(=O)c2ccccc12,-47.7%
2,NC(=O)c1ccc(-n2nnnc2Oc2ccccc2)cc1,-1.43%
3,CCOc1ccc(NC(=O)n2ncc3c(C)cccc32)cc1,25.4%
4,CCOC(=O)C1CCCN(c2c(NCCN(C)Cc3ccccc3)c(=O)c2=O)C1 (stereo not drawn),-4.11%
5,O=C(/C=C\c1ccccc1OC(=O)c1ccccc1F)c1cc2ccccc2o1,-3.12%
6,COc1ccc(-c2ccc(=O)[nH]n2)cc1,-5.84%
7,CCCCN1C(=O)/C(=C(/C#N)C(=O)N2CCCC2)c2ccccc21,-5.69%
8,CS(=O)(=O)N(CC(=O)N1CCOCC1)c1ccccc1Br,18%
9,CCOC(=O)c1cc(-c2ccc(C)cc2)nc2nc(SC)[nH]c(=O)c12,10.3%
10,CC(NC(=O)CSc1nnc(-c2cccc(S(=O)(=O)N3CCCCC3)c2)o1)C12CC3CC(CC(C3)C1)C2 (stereo not drawn),4.04%
11,O=C(O)COc1ccc(/C=N/NC(=O)c2ccccc2Br)cc1,24.2%
12,CCOC(=O)Cn1nnnc1C(C(C)C)N(Cc1cccs1)Cc1cc2cc(C)ccc2[nH]c1=O (stereo not drawn),-5.17%
13,Cc1cc(-c2ccc(C)c(S(=O)(=O)NCc3ccc(OC(C)C)cc3)c2)on1,-15.8%
14,NC(=O)C1CC(=O)N(c2ccc(OCc3ccc([N+](=O)[O-])cc3)cc2)C1 (stereo not drawn),-30.8%
15,COCCNC(=O)C1Cc2cc(S(=O)(=O)N3CCCC3)ccc2N1C(C)=O (stereo not drawn),17.4%
16,O=C(Nc1nc(-c2ccccc2Cl)cs1)c1cccnc1,-3.03%
17,Cc1[nH]c2ccccc2c1C(=O)CN1CCSCC1,5.84%
18,Cc1cc(NC(=O)CO/N=C/c2ccc3c(c2)OCO3)ccc1Br,30.4%
19,C/C(=N\NC(=O)c1cccnc1)c1ccc(OC2OCCOC2Oc2ccc(/C(C)=N/NC(=O)c3cccnc3)cc2)cc1 (stereo not drawn),8.81%
20,Cc1ccc(S(=O)(=O)c2cc3c(=O)n4ccccc4nc3n(Cc3ccco3)c2=N)cc1C,-4.4%
21,COc1ccc(S(=O)(=O)N2CCOCC2)cc1NC(=O)COc1ccccc1OC,22.3%
22,O=C(C1=C[C@H](C2CC2)C[C@H](OCc2ccc(CO)cc2)O1)N1CCN(Cc2ccc3c(c2)OCO3)CC1,-57.8%
23,Cc1nn2cnnc2c(C)c1Cc1ccc(Cl)cc1,-11.9%
24,COc1ccccc1N1CCN(C(=O)c2ccc(C(C)(C)C)cc2)CC1,-18.6%
25,Cc1cc(C)n(-c2nc(NCCN(C)C)c3c4c(sc3n2)COC(C)(C)C4)n1,-32.7%
26,Cc1ccc(CCN2CC(C(=O)NCc3ccco3)CC2=O)cc1 (stereo not drawn),-3.02%
27,O=C(Cn1nc(-c2ccccc2)c2ccccc2c1=O)Nc1ccc(O)cc1,19.3%
